PubChem BioAssay AID1030 (National Center for Advancing Translational Sciences (NCATS), 2008)
In all, about 220,000 compounds went through this assay and about 16,000 (7.3%) were called active. This list was built around the results that the source calls inconclusive (neither active nor inactive); the mix of calls is not that of the screen. Calls come from the whole dose curve; as a rule, active = well fitted inhibition curve with a large enough effect (not every such curve was filed as active); inconclusive = small, poorly fitted or top-dose-only effect, or another doubt; inactive = no such curve, though single readings can be large or run the other way. Potencies of inconclusive entries are left out as doubtful fits.

Target: Aldehyde dehydrogenase 1A1 (Homo sapiens) (UniProt P00352)
Sequence of UniProt P00352 (P00352 whole entry, looked up): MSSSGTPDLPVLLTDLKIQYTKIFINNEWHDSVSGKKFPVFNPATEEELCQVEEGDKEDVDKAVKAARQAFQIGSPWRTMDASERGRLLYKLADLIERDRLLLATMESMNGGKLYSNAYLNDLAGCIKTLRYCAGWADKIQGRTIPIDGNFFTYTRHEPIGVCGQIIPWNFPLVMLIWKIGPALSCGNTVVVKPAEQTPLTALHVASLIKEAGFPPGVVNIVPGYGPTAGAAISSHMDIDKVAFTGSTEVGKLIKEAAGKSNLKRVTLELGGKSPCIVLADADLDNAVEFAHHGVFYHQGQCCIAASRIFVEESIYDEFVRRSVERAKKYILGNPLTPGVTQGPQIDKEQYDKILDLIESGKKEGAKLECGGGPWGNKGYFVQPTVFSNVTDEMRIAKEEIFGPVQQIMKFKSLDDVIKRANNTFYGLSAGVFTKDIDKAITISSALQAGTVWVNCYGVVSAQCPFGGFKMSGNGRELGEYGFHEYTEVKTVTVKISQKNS
Assay: qHTS Assay for Inhibitors of Aldehyde Dehydrogenase 1 (ALDH1A1);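 for activity, negative = inhibition: plate controls were no enzyme wells and a reference inhibitor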
Conditions: Purified ALDH1A1, NADH fluorescence, propionaldehyde substrate; series mostly up to 75.3 µM; activity, negative = inhibition: at the top concentration
Potency is the fitted concentration of half-maximal effect; tags give direction and shape of the fitted curve.

Row | SMILES | Potency | activity, negative = inhibition
1 | Cc1cccc(C)c1NC(=O)Cn1nnc(-c2ccc(N3CCOCC3)cc2)n1 | inconclusive [inhibitor, single point] | –
2 | COc1ccc(S(=O)(=O)n2oc(=O)cc2-c2ccccc2)cc1OC | inconclusive [inhibitor, full curve] | –
3 | Cc1cc(N2CCN(c3ccccc3Cl)CC2)n2cc(-c3ccccc3)nc2n1 | inconclusive [inhibitor, single point] | –
4 | CCCCN(C(=O)CSc1nncn1-c1ccccc1OC)c1c(N)n(Cc2ccccc2)c(=O)[nH]c1=O | active: 2.24 µM | –
5 | C=CCOc1ccc(/C=C/C(=O)Nc2ccc(C(=O)NC)cc2)cc1 | inconclusive [inhibitor, single point] | –
6 | Cc1nnc(NC(=O)C2CCCN2S(=O)(=O)c2ccc(Cl)cc2)s1 (stereo unspecified) | – | inactive: 8.98%
7 | CCN(CC)CCCN(C(=O)Cn1nnc(-c2ccc(OC)c(OC)c2)n1)C(C(=O)NC(C)(C)C)c1ccc(F)cc1 (stereo unspecified) | – | inactive: 8.2%
8 | COc1ccc2sc(C)[n+](C)c2c1 | inconclusive [inhibitor, single point] | –
9 | Cc1ccc(CNc2cnccn2)cc1 | inconclusive [inhibitor, single point] | –
10 | CCOP(=O)(O)c1ccccc1OCCOCCOc1ccccc1P(=O)(O)OCC | active: 3.98 µM | –
11 | Cc1cc(C)c2c(N=NN(C)C)[nH]nc2n1 | inconclusive [inhibitor, single point] | –
12 | Nc1nc(SCC(=O)Nc2ccccc2-c2ccccc2)n[nH]1 | inconclusive [inhibitor, partial curve] | –
13 | CCCCNc1nc(C)nc2c1nc(-c1ccccc1)n2CCCCN(CC)CC | inconclusive [inhibitor, partial curve] | –
14 | O=C(Nc1cc(C(F)(F)F)ccc1Cl)C(Sc1nnc(-c2cccs2)o1)c1ccccc1 (stereo unspecified) | active: 1 µM | –
15 | COc1ccccc1/C=C/C1(C(=O)NC2CCCC2)CC(=O)N1c1ccc(C)cc1 (stereo unspecified) | inconclusive [inhibitor, single point] | –
16 | CC(C)C1NC(=S)N(Cc2ccccc2)C1=O (stereo unspecified) | inconclusive [inhibitor, partial curve] | –
17 | O=C(COc1ccc(/C=N/NC(=O)c2cc3ccccc3o2)cc1Cl)Nc1ccccc1 | inconclusive [inhibitor, partial curve] | –
18 | CCCCCOCC1CC(C/C(C)=N/Nc2nc(-c3ccccc3)cs2)C(=O)O1 (stereo unspecified) | active: 25.1 µM | –
19 | Cc1ccc(NC(=O)CN2C(=O)S/C(=C\c3cc(C)n(-c4ccc(C(=O)O)cc4)c3C)C2=O)cc1 | – | inactive: 13.8%
20 | C=CCn1c(Cc2csc(N)n2)nnc1SCc1ccc(C(=O)OC)cc1 | inconclusive [inhibitor, single point] | –
21 | COc1ccc(CNC(=O)CSc2nnc(-c3ccc(NC(C)=O)cc3)n2C)cc1 | inconclusive [inhibitor, single point] | –
22 | Cc1ccc(NC(=O)C2CCCN2C(=O)NCc2ccccc2)cc1 (stereo unspecified) | inconclusive [inhibitor, single point] | –
23 | COc1ccc(N=N/C(=C\O)C(=O)c2ccco2)cc1 | active: 7.94 µM | –
24 | CC1CCCCC1NC(=O)C1CCN(S(=O)(=O)N2CCC3(CC2)OCCO3)CC1 (stereo unspecified) | inconclusive [inhibitor, single point] | –

Row | SMILES | Potency | activity, negative = inhibition
25 | COc1ccc2oc(C(F)(F)C(F)F)cc(=O)c2c1 | inconclusive [inhibitor, single point] | –
26 | Cc1ccccc1NC(=S)NC(NC(=O)COc1ccccc1)C(Cl)(Cl)Cl (stereo unspecified) | inconclusive [inhibitor, partial curve] | –
27 | COc1ccc(CCNC(=O)CSc2nnc(-c3ccccc3)o2)cc1OC | – | inactive: 0.784%
28 | CCOC(=O)c1c(-c2ccccc2)[nH]c2ccc(O)cc12 | inconclusive [inhibitor, partial curve] | –
29 | COc1ccc2[nH]c(=O)c(CN(C(=O)c3cccnc3)c3ccccc3)cc2c1 | inconclusive [inhibitor, single point] | –
30 | O=C(N/N=C\c1ccc(F)cc1)c1ccc(Cn2cc(Br)c([N+](=O)[O-])n2)o1 | inconclusive [inhibitor, single point] | –
31 | O=C(N=C1c2ccccc2CN1c1ccccc1)c1cccc([N+](=O)[O-])c1 | inconclusive [inhibitor, partial curve] | –
32 | O=C(CCn1c(=O)oc2ccccc21)Nc1ccccc1 | inconclusive [inhibitor, single point] | –
33 | O=C(CSc1nnc2c(Cl)cc(Cl)cn12)NC1CCS(=O)(=O)C1 (stereo unspecified) | inconclusive [inhibitor, partial curve, poor fit] | –
34 | O=C(COC(=O)c1ccc(Cl)c(S(=O)(=O)N2CCCC2)c1)NC1CCCCC1 | inconclusive [inhibitor, single point] | –
35 | CC(C)C/C(O)=C/c1nc2cc(Cl)ccc2oc1=O | inconclusive [inhibitor, single point] | –
36 | CCOC(=O)N/N=C(\C)c1ccc(-n2cnnn2)cc1 | – | inactive: 5.7%
37 | CCOC(=O)c1cc(CC)sc1NC(=O)c1cc(OCC)c(OCC)c(OCC)c1 | inconclusive [inhibitor, partial curve] | –
38 | COCCCNC(=O)CN(c1cc(Cl)ccc1OC)S(C)(=O)=O | – | inactive: -1.13%
39 | O=C1OCC(c2ccccc2)=C1c1ccc(S(=O)(=O)N2CCOCC2)s1 | active: 20 µM | –
40 | COc1ccc(C(CC(=O)O)NC(=O)COc2cc(C)ccc2C)cc1OC (stereo unspecified) | – | inactive: 3.28%
41 | COC(=O)[C@]1(C)CCC[C@]2(C)c3ccc(C(C)C)cc3C(=O)CC12 (stereo partly specified) | inconclusive [inhibitor, single point] | –
42 | COC(=O)c1c(N)c2ccccc2[nH]c1=O | inconclusive [inhibitor, single point] | –
43 | CCOc1cc(S(=O)(=O)N2CCCC2)c(C)cc1C | – | inactive: -5.41%
44 | CCC(=O)N1CCc2cc(Br)cc(S(=O)(=O)NCc3ccco3)c21 | inconclusive [inhibitor, single point] | –
45 | Cc1cc(C)c(C#N)c(SCc2ccc3c(c2)OCO3)n1 | inconclusive [inhibitor, partial curve] | –
46 | Cc1cc(/C=C2\SC(N)=NC2=O)c(C)n1-c1ccc(F)cc1 | inconclusive [inhibitor, single point] | –
47 | O=C(COC(=O)c1ccc(Br)o1)Nc1cccc(S(=O)(=O)N2CCCCCC2)c1 | – | inactive: -7.92%
48 | O=C1NC(c2ccc(-c3ccccc3[N+](=O)[O-])o2)C(C(=O)c2ccc(F)cc2)C(O)(C(F)(F)F)N1 (stereo unspecified) | inconclusive [inhibitor, partial curve] | –

Row | SMILES | Potency | activity, negative = inhibition
49 | Cn1c(Cl)c(/C=N/OC(=O)c2ccc(Cl)cc2)c2ccccc21 | inconclusive [inhibitor, single point] | –
50 | CCCCCC(C)N (stereo unspecified) | – | inactive: -9.94%
51 | COc1cc(C=C2C(=O)c3ccccc3C2=O)ccc1O | inconclusive [inhibitor, partial curve] | –
52 | COc1cc(/C=C(\C#N)c2ccccn2)ccc1OCC(=O)Nc1cccc(C(F)(F)F)c1 | inconclusive [inhibitor, single point] | –
53 | COc1ccc(C2CC(c3ccccc3)=NN2C(=O)COC(=O)c2cccnc2)cc1 (stereo unspecified) | – | inactive: -8.15%
54 | COc1ccc(NC2=CC(=S)NC(C)(C)C2)cc1 | – | inactive: 1.47%
55 | CCOc1ccc(/C=C2\SC(=S)N(C)C2=O)cc1OC | – | inactive: 5.49%
56 | NC(=O)CSc1nnc2n(-c3ccccc3)c(=O)c3c4c(sc3n12)CCCCC4 | inconclusive [inhibitor, full curve, poor fit] | –
57 | O=C(/C=C/c1ccccc1)N/C(=C/c1ccccc1)C(=O)NCCCO | – | inactive: 3.26%
58 | O=c1[nH]c2ccccc2nc1C(F)(F)F | inconclusive [inhibitor, partial curve] | –
59 | Cc1cc(C)n2nc(C(=O)NC(c3ccccc3)c3ccccc3)nc2n1 | inconclusive [inhibitor, single point] | –
60 | CCOC(=O)c1sc(NC(=O)c2c(C)nn(Cc3ccccc3)c2C)cc1C | inconclusive [inhibitor, single point] | –
61 | C=CCN(CC=C)C(=S)Nc1ccc(OC)c(OC)c1 | – | inactive: 2.04%
62 | COc1ccc(OCc2nn3c(-c4ccccn4)nnc3s2)cc1 | inconclusive [inhibitor, single point] | –
63 | COc1ccc(C(NC(=O)c2ccco2)c2ccc(OC)c(OC)c2)cc1 (stereo unspecified) | inconclusive [inhibitor, single point] | –
64 | O=C(COC(=O)c1cc(=O)[nH]c2ccc(Br)cc12)c1ccccc1 | – | inactive: -1.25%
65 | CC(C)CN1CC2(CCN(C(=O)c3csnn3)CC2)C1 | – | inactive: 5.79%
66 | CCCCC(=O)Nc1cccc(-c2nc3ncccc3o2)c1 | inconclusive [inhibitor, single point] | –
67 | CC(C)(C)c1ccc(O)c(N=Cc2cc(Br)ccc2O)c1 | inconclusive [inhibitor, single point] | –
68 | S=c1[nH]c2cc(Cl)ccc2s1 | active: 2.82 µM | –
69 | Cn1nc(C(=O)N2CCN(C(c3ccccc3)c3ccccc3)CC2)c2ccccc2c1=O | inconclusive [inhibitor, single point] | –
70 | Cn1c(=S)[nH]c2c(c1=O)C(C)(C)Cc1ccccc1-2 | active: 8.91 µM | –
71 | CCOC(=O)c1ccc(NC(=O)NCCc2ccccc2OC)cc1 | inconclusive [inhibitor, single point] | –
